Results as given in article PMC4336329 (PLoS ONE, 2015).
Hit rate of the full screen: of about 310,000 compounds, about 14,000 (4.5%) showed an effect of 50% or more. Effects have a minus sign here. Some of the results follow.

These compounds were tested against human ether-à-go-go-related gene (hERG) potassium channel (human, UniProt Q12809) (assay: primary screen, population patch clamp on CHO cells stably expressing hERG).
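Also: peak tail current of the secondary pulse compared with the same well before compound.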

Chain of human ether-à-go-go-related gene (hERG) potassium channel (Q12809 whole entry, looked up): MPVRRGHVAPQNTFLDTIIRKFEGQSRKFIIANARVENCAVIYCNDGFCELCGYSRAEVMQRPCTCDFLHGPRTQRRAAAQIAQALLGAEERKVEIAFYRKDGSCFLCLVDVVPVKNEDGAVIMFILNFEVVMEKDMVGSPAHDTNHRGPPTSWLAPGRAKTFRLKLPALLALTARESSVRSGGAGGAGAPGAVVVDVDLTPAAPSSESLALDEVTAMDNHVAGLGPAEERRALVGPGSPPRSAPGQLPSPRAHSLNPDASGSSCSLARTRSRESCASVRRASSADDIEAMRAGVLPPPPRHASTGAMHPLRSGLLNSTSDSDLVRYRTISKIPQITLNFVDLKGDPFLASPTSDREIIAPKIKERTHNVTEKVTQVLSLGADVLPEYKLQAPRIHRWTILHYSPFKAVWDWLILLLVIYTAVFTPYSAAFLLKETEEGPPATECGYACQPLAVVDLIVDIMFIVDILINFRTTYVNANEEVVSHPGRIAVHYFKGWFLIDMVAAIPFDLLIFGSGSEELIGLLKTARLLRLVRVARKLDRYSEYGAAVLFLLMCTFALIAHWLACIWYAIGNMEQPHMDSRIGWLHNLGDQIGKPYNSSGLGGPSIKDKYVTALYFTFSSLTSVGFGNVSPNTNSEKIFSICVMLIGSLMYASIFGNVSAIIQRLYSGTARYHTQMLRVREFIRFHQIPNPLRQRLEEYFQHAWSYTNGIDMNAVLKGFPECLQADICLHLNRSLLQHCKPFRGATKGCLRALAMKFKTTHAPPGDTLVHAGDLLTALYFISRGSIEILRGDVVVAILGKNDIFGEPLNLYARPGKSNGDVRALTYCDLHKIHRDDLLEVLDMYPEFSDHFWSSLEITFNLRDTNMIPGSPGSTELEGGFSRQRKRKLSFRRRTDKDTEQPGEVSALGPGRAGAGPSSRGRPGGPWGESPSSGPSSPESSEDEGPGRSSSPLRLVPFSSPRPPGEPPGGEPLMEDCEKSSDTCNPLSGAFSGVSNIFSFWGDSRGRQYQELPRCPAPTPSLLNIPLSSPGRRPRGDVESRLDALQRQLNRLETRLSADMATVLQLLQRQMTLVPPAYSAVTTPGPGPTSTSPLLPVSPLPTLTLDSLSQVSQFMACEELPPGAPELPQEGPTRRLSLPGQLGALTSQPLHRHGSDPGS

Row | SMILES | hERG current change (%, negative = inhibition) at 10uM [%]
1 | O=C(CN1C(=O)c2ccccc2C1=O)OCc1nc2ccsc2c(=O)[nH]1 | 8.55
2 | COc1ccc(C2=NN(C(=O)CCC(=O)O)C(c3cccs3)C2)cc1 (centres unmarked) | 9.91
3 | Cc1nc2scc(-c3cccs3)c2c(=O)o1 | 6
4 | Cc1cccnc1NC(=O)/C=C/c1ccc2c(c1)OCO2 | -2.88
5 | Cc1cc(C)cc(OC(=O)CCN2C(=O)C3C4C=CC(C5CC45)C3C2=O)c1 (centres unmarked) | -10.2
6 | Cn1c(SCC(=O)N2CCCC2=O)nnc1-c1ccccc1F | 9.56
7 | FC(F)C(F)(F)C1=CC(c2ccccc2)=NCCN1 | -24.4
8 | O=S(=O)(NCc1ccco1)N1CCCCCC1 | 9.74
9 | Cc1ccc(C)c(N2CCN(CCCNC(=O)CCC(=O)N3CCOc4ccc(Cl)cc43)CC2)c1 | -55.9
10 | CCCCC(=O)N1CCN(c2ccc(OC)cc2[N+](=O)[O-])CC1 | -64.5
11 | Cc1ccc(OCC(=O)N2CCCC(CO)(CCOc3ccccc3)C2)cc1 (centres unmarked) | -30.4
12 | O=C(COc1ccc2c3c(c(=O)oc2c1)CCC3)Nc1ccccn1 | 12.2
13 | O=C(O)c1cc([N+](=O)[O-])ccc1NCCc1ccccc1 | 14.4
14 | O=C(O)C(=O)O.O=S(=O)(c1ccc(F)cc1)N1CCC(N2CCCC2)CC1 | -15
15 | O=C1C=CCC(/C=C/c2ccccc2)O1 (centres unmarked) | 13.3
16 | COc1ccccc1CNC(=O)CCN1C(=O)c2ccccc2C1=O | 12.3
17 | Cc1nn(CC(=O)NCC2CCCO2)c(C)c1[N+](=O)[O-] (centres unmarked) | 33
18 | Cc1nn(Cc2ccccc2)c2c1C(c1cccnc1)C(C#N)=C(N)O2 (centres unmarked) | 3.79
19 | Cc1cccc(C)c1NC(=S)/C(=C(\[O-])c1cccs1)[n+]1ccccc1 | -18.8
20 | O=C(O)c1ccc(-n2nnnc2SCc2ccccc2F)cc1 | 19.3
21 | O=C(OCC(=O)N1CCN(c2ccccc2)CC1)c1ccc(Cl)cc1[N+](=O)[O-] | -63.6
22 | Cc1nn(CC(=O)NC2CCC(C)CC2)c(C)c1[N+](=O)[O-] (centres unmarked) | -15.9
23 | CC(=O)c1cccc(NC(=O)C2C3C=CC(C3)C2C(=O)O)c1 (centres unmarked) | 23.1

Row | SMILES | hERG current change (%, negative = inhibition) at 10uM [%]
24 | c1ccc(-c2nc3c([nH]2)CCc2nonc2-3)cc1 | 28.8
25 | Cc1ccc(C)c(C(C)NC(=O)C2C3CCC(O3)C2C(=O)O)c1 (centres unmarked) | -6.85
26 | CCOC(=O)CCCCC(=O)c1[nH]c(=O)[nH]c1CSc1nnc2c3cc(Br)ccc3n(C)c2n1 | 20.5
27 | N#C/C(=C\c1ccc(-c2ccccc2[N+](=O)[O-])o1)C(=O)Nc1nc(-c2cccs2)cs1 | 18.1
28 | O=C(C1CCC(CNc2c(N3CCCCC3)c(=O)c2=O)CC1)N1CCN(c2ccccn2)CC1 (centres unmarked) | 0.00178
29 | Cl.OCCNCCOc1ccc(Cl)c(Cl)c1 | -6.93
30 | O=C(O)C(=O)O.c1ccc(COc2ccc(OCCCN3CCCC3)cc2)cc1 | -73.8
31 | O=C(NCc1ccco1)c1cc2c(s1)CSC2 | -4.05
32 | Cc1ccc(C(=O)NCCc2nnc(SCC(=O)Nc3nc(-c4ccccc4)cs3)n2C)cc1 | -0.75
33 | O=C(O)c1cccc(NS(=O)(=O)c2ccc3c4c(cccc24)C(=O)N3)c1 | 23
34 | CC(C)c1ccccc1NC1=CC(=O)CC(C)(C)C1 | 4.25
35 | O=C(Cc1ccccc1)NCCc1c[nH]c2ccccc12.O=C(O)C(=O)O | 16.4
36 | CC1(OC(=O)C2CCCC2)C(=O)C=C2C=C(c3ccsc3)N(C3CCCC3)C=C2C1=O (centres unmarked) | -64.7
37 | CC1(C)C2C(Cl)(Cl)C2(C)c2ccccc2N1C=O (centres unmarked) | 3.5
38 | COCCCn1c(=O)/c(=C\c2ccc(OC(F)F)c(OC)c2)s/c1=C(/C#N)C(=O)NCCOC | -4.74
39 | COC(=O)c1sc2nc(CN3CCN(c4ccc(OC)cc4)CC3)[nH]c(=O)c2c1C | -0.366
40 | CN(C)C(=O)C1CCC(=O)N1Cc1cccs1 (centres unmarked) | 9.89
41 | c1coc(Cn2c(-c3ccco3)nc3ccccc32)c1 | -10
42 | Cc1cccc(N2CSC3=C(C#N)C(c4ccc(C)o4)CC(=O)N3C2)c1 (centres unmarked) | 12
43 | CC(C)(C)c1ccc(NC(=O)COC(=O)C2CCCC2)cc1 | 9.41
44 | CCN(c1cccc(C)c1)C1C(=O)c2ccccc2N1C(C)=O (centres unmarked) | 13.7
45 | Cc1cc(=O)oc2cc(OCC(=O)Nc3ccccc3C(=O)O)ccc12 | 11.6
46 | O=C(CSc1nnc(-c2ccoc2)o1)N1CCOCC1 | 5.01

Row | SMILES | hERG current change (%, negative = inhibition) at 10uM [%]
47 | CC(C)(C)NS(=O)(=O)c1ccc(OCC(=O)NCCC2=CCCCC2)cc1 | -14.1
48 | COC(=O)c1ccccc1NC(=S)N1CCN(c2ccccn2)CC1 | -6.65
49 | Cc1ccc(N(CC(=O)O)S(C)(=O)=O)cc1Cl | 5.49
50 | FC(F)(F)c1cccc(-c2cc3ccccc3nc2N2CCCC2)c1 | 4.9
51 | Cc1ccc(NC(=O)c2ccc(F)cc2)cc1S(=O)(=O)N1CCCCCC1 | -42.6
52 | CCCCn1c(CNC(=O)C23CC4CC(CC(C4)C2)C3)nnc1SC(C)CC (centres unmarked) | -20.4
53 | O=C(O)CC(NC(=O)C(F)(F)F)c1ccc2c(c1)OCO2 (centres unmarked) | 13.2
54 | CCC(C)/C(C)=N/Nc1ccc(S(N)(=O)=O)cc1[N+](=O)[O-] (centres unmarked) | 2.03
55 | COc1ccccc1CC(=O)NCCN1CCCCC1 | -4.44
56 | O=C(NCCCN1CCOCC1)c1ccc(Sc2ccc(F)cc2)c([N+](=O)[O-])c1 | -33.3
57 | COc1ccc(Cl)cc1C(=O)NNC(=S)NC(=O)c1cc(-c2ccc(Cl)cc2)nc2ccccc12 | 5.05
58 | NC(=O)c1ccc(Nc2nnc(-c3ccc(O)cc3)c3ccccc23)cc1 | 24
59 | O=C(CSc1nc2ncccc2[nH]1)NC1CCCCC1 | 8.56
60 | CCOc1ccc(CCNC(=O)CN2C(=O)NC3(CCCCCC3)C2=O)cc1OCC | 9.95
61 | Cc1cc(C)cc(OCC(=O)Nc2ccccc2C(=O)N2CCOCC2)c1 | 10.2
62 | O=C(CCc1ccncc1)NC1CCCc2c1cnn2-c1cc(F)cc(F)c1 (centres unmarked) | -56.5
63 | CCc1ccc(N2CC(C(=O)Nc3ccc(S(=O)(=O)Nc4nccs4)cc3)CC2=O)cc1 (centres unmarked) | 18.2
64 | COCC(C)NC(=O)COc1ccc(Cl)cc1Cl (centres unmarked) | 5.35
65 | COC(=O)C1=C(c2c(C)noc2C)C[C@@H]2CC[C@H]1N2C(=O)N1CCOCC1 | 8.82
66 | COc1ccc(C(CCN(Cc2ccc(OC)c(OC)c2)C(C)=O)c2ccccc2)cc1 (centres unmarked) | -33.9
67 | O=C(Nc1cc(-c2nc3ccccc3s2)ccc1Cl)c1ccc2c(c1)OCO2 | 7.51
68 | CNc1cc(NS(=O)(=O)c2ccc(N)cc2)nc(NC)n1.Cl | -61.4
69 | CCOCCCNC(=S)N1CCN(Cc2ccc3c(c2)OCO3)CC1.O=C(O)C(=O)O | -7.2

Row | SMILES | hERG current change (%, negative = inhibition) at 10uM [%]
70 | CCC(=O)Nc1cccc(NC(=S)NC(=O)c2ccc(C)cc2)c1 | -2.66
71 | Cc1ccccc1NC(=O)Cc1cn(C)c2ccccc12 | 15.1
72 | Cc1cccc(NS(=O)(=O)c2cccc(C(=O)NCC3(N4CCCCC4)CCCCC3)c2)c1 | -89.9
73 | COc1ccccc1NS(=O)(=O)c1ccc2c(c1)NC(=O)CC(=O)N2 | 14.5
74 | CC(=O)N(CN1C(=O)C2C3C=CC(C3)C2C1=O)c1cccc(Cl)c1 (centres unmarked) | 6.79
75 | COc1ccccc1C(=O)Nc1ccc(N2CCN(Cc3ccccc3)CC2)cc1 | -0.268
76 | CCc1nn(CC(=O)NCCC2=CCCCC2)c(=O)c2cc3cc(F)ccc3n12 | 15.7
77 | COC(=O)c1ccc(CSc2nc3scc(-c4cccs4)c3c(=O)[nH]2)o1 | 3.45
78 | COC(=O)c1ccc(C(=O)N2CCCC(Nc3ccc(C(C)C)cc3)C2)nc1 (centres unmarked) | 0.521
79 | CN1CCc2nc(SCCOc3ccccc3)c(C#N)cc2C1 | -66.3
80 | CNC(=O)c1cc(C)c(-c2ccccc2)s1 | -18.9
81 | COc1cc2nc(Cl)nc(N3CCOCC3)c2cc1OC | -14.4
82 | Nc1nonc1-n1nnc(C(=O)N/N=C/C2CCCCC2)c1-c1ccccc1 | 12.5
83 | CC(C)n1c(N)c(C#N)c2ccc([N+](=O)[O-])cc2c1=O | -11.5
84 | COc1ccc(OCC(=O)Nc2ccc3c(c2)n(C)c(=O)n3C)cc1 | -3.51
85 | CC(=O)N1c2ccc(S(=O)(=O)N(C)CC(=O)NC3CCCC3)cc2CC1C (centres unmarked) | -23.1
86 | COc1ccccc1C(=O)NCCC(=O)N1CCN(S(=O)(=O)c2cccc(Cl)c2)CC1 | -31.2
87 | CC1CCCN(c2ccc(F)cc2N)C1.Cl (centres unmarked) | 11.2
88 | CC1(C)CC(=O)c2cc(OCC(=O)O)ccc2O1 | 0.158
89 | COC(=O)Nc1ccc(S(=O)(=O)N2CCCC(C(=O)Nc3cccnc3)C2)cc1 (centres unmarked) | -1.19
